# Laboratory results published in the supplement of paper PMC4967469.
# IC50 is the fitted dose that halves viability relative to control wells, and lower means more sensitive; fits outside the tested doses are given as limits. AUC, from the same fit, is the share of area under the viability curve across the 256-fold dose range; the more sensitive the line, the further below 1. For part of these data: The top dose, if marked as inferred, comes from the curve model; the source does not state it.
# How the values were obtained:
# Assay in all cases: Viability of human cancer cell lines after 72 h of drug (GDSC screen)
# PF-4708671 = compound: CCc1cncnc1N1CCN(Cc2nc3ccc(C(F)(F)F)cc3[nH]2)CC1 [PF-4708671]; conditions: top dose 10 µM; top dose inferred
# Experimental: (§1)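 Human cancer cell lines in 384-well plates, medium with 10% serum, drug for 72 h over a 256-fold dose range (nine 2-fold or five 4-fold steps up to the top dose). Adherent lines were fixed and stained with the nucleic acid dye Syto60, suspension lines read with resazurin; signal relative to control wells, capped at 0 and 100%. One two-parameter sigmoid per drug and line, fitted in a mixed model over all curves with the slope shared within a line.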
# KIN001-244 = compound: O=C(NC(COc1ccc2[nH]c(=O)[nH]c2c1)c1ccccc1)c1cccn(Cc2ccc(F)c(F)c2)c1=O [KIN001-244]; conditions: top dose 20 µM; top dose inferred
# Experimental: as §1
# I-BET-762 = compound: CCNC(=O)C[C@@H]1N=C(c2ccc(Cl)cc2)c2cc(OC)ccc2-n2c(C)nnc21 [I-BET-762]; conditions: top dose 20 µM; top dose inferred
# Experimental: as §1
# AV-951 = compound: COc1cc2nccc(Oc3ccc(NC(=O)Nc4cc(C)on4)c(Cl)c3)c2cc1OC [AV-951]; conditions: top dose 0.128 µM; top dose inferred
# Experimental: as §1
# Trametinib = compound: CC(=O)Nc1cccc(-n2c(=O)n(C3CC3)c(=O)c3c(Nc4ccc(I)cc4F)n(C)c(=O)c(C)c32)c1 [Trametinib]; conditions: top dose 1 µM
# Experimental: as §1
# HG-6-64-1 = compound: CCN1CCN(Cc2ccc(NC(=O)c3ccc(C)c(/C=C/c4cnc5[nH]ccc5c4OC)c3)cc2C(F)(F)F)CC1 [HG-6-64-1]; conditions: top dose 5.12 µM; top dose inferred
# Experimental: as §1
Cell Line,AUC (PF-4708671),IC50 (PF-4708671) [µM],AUC (KIN001-244),IC50 (KIN001-244) [µM],AUC (I-BET-762),IC50 (I-BET-762) [µM],AUC (AV-951),IC50 (AV-951) [µM],AUC (Trametinib),IC50 (Trametinib) [µM],AUC (HG-6-64-1),IC50 (HG-6-64-1) [µM]
"NCI-H2172 (non-small cell lung carcinoma, adherent)",0.896,> 10,0.952,> 20,0.911,> 20,0.979,> 0.128,0.931,> 1,0.951,> 5.12
"NCI-H2291 (lung adenocarcinoma, adherent)",0.918,> 10,0.978,> 20,0.982,> 20,0.984,> 0.128,0.126,< 0.00391,0.983,> 5.12
"NCI-H2342 (lung adenocarcinoma, adherent)",0.88,> 10,0.882,> 20,0.986,> 20,0.986,> 0.128,0.954,> 1,0.572,0.515
"NCI-H2347 (lung adenocarcinoma, adherent)",0.944,> 10,0.922,> 20,0.966,> 20,0.982,> 0.128,0.33,0.0189,0.889,> 5.12
"NCI-H2405 (lung adenocarcinoma, adherent)",0.943,> 10,0.941,> 20,0.98,> 20,0.979,> 0.128,0.647,0.168,0.539,0.413
"NCI-H2444 (non-small cell lung carcinoma, adherent)",0.979,> 10,0.985,> 20,0.935,> 20,0.988,> 0.128,0.9,> 1,0.969,> 5.12
"NCI-H2452 (mesothelioma, adherent)",0.975,> 10,0.981,> 20,0.98,> 20,0.982,> 0.128,0.687,0.234,0.733,1.7
"NCI-H3122 (lung adenocarcinoma, adherent)",0.969,> 10,0.875,> 20,0.902,> 20,0.984,> 0.128,0.388,0.0304,0.827,3.26
"NUGC-3 (stomach, adherent)",0.935,> 10,0.915,> 20,0.979,> 20,0.983,> 0.128,0.52,0.0715,0.772,2.23
"NUGC-4 (stomach, adherent)",0.978,> 10,0.832,12.8,0.984,> 20,0.987,> 0.128,0.138,0.00456,0.731,1.46
"NY (osteosarcoma, adherent)",0.956,> 10,0.989,> 20,0.989,> 20,0.989,> 0.128,0.931,> 1,0.568,0.488
"OAW-28 (ovary, adherent)",0.934,> 10,0.934,> 20,0.934,> 20,0.977,> 0.128,0.915,> 1,0.853,> 5.12
"OAW-42 (ovary, adherent)",0.969,> 10,0.938,> 20,0.966,> 20,0.984,> 0.128,0.665,0.188,0.796,2.63
"OCI-AML3 (acute myeloid leukaemia, suspension)",0.98,> 10,0.489,1.18,0.373,0.589,0.991,> 0.128,0.067,< 0.00391,0.911,> 5.12
"OCUM-1 (stomach, adherent)",0.966,> 10,0.873,> 20,0.985,> 20,0.987,> 0.128,0.05,< 0.00391,0.947,> 5.12
"OE19 (oesophagus, adherent)",0.682,2.17,0.957,> 20,0.973,> 20,0.986,> 0.128,0.787,0.5,0.918,> 5.12
"OE21 (oesophagus, adherent)",0.966,> 10,0.895,> 20,0.937,> 20,0.977,> 0.128,0.429,0.0371,0.735,1.97
"OE33 (oesophagus, adherent)",0.977,> 10,0.933,> 20,0.96,> 20,0.975,> 0.128,0.75,0.381,0.878,> 5.12
"OSC-19 (head and neck, adherent)",0.97,> 10,0.919,> 20,0.947,> 20,0.987,> 0.128,0.476,0.0535,0.568,0.496
"OSC-20 (head and neck, adherent)",0.924,> 10,0.868,> 20,0.969,> 20,0.98,> 0.128,0.843,0.919,0.698,1.3
"OV-90 (ovary, adherent)",0.968,> 10,0.951,> 20,0.936,> 20,0.974,> 0.128,0.098,< 0.00391,0.865,> 5.12
"OVCAR-3 (ovary, adherent)",0.956,> 10,0.986,> 20,0.987,> 20,0.987,> 0.128,0.978,> 1,0.83,3.69

Cell Line,AUC (PF-4708671),IC50 (PF-4708671) [µM],AUC (KIN001-244),IC50 (KIN001-244) [µM],AUC (I-BET-762),IC50 (I-BET-762) [µM],AUC (AV-951),IC50 (AV-951) [µM],AUC (Trametinib),IC50 (Trametinib) [µM],AUC (HG-6-64-1),IC50 (HG-6-64-1) [µM]
"OVCAR-5 (ovary, adherent)",0.958,> 10,0.932,> 20,0.91,> 20,0.968,> 0.128,0.17,0.00482,0.792,2.87
"OVCAR-8 (ovary, adherent)",0.952,> 10,0.896,> 20,0.855,13.4,0.99,> 0.128,0.791,0.398,0.699,1.08
"OVISE (ovary, adherent)",0.962,> 10,0.858,> 20,0.917,> 20,0.964,> 0.128,0.723,0.337,0.847,> 5.12
"OVKATE (ovary, adherent)",0.979,> 10,0.844,> 20,0.843,> 20,0.979,> 0.128,0.865,> 1,0.965,> 5.12
"OVMIU (ovary, adherent)",0.911,> 10,0.813,14.2,0.775,9.95,0.971,> 0.128,0.346,0.0209,0.816,3.75
"OVTOKO (ovary, adherent)",0.923,> 10,0.907,> 20,0.912,> 20,0.977,> 0.128,0.664,0.203,0.615,0.727
"PA-TU-8902 (pancreas, adherent)",0.919,> 10,0.846,18.5,0.982,> 20,0.982,> 0.128,0.245,0.00994,0.8,2.97
"PA-TU-8988T (pancreas, adherent)",0.922,> 10,0.908,> 20,0.976,> 20,0.987,> 0.128,0.281,0.0149,0.66,0.891
"PANC-02-03 (pancreas, adherent)",0.932,> 10,0.808,12.9,0.748,7.59,0.969,> 0.128,0.314,0.0168,0.843,4.73
"PANC-03-27 (pancreas, adherent)",0.989,> 10,0.906,> 20,0.989,> 20,0.982,> 0.128,0.506,0.0647,0.72,1.28
"PANC-08-13 (pancreas, adherent)",0.943,> 10,0.951,> 20,0.887,> 20,0.97,> 0.128,0.964,> 1,0.703,1.42
"PANC-10-05 (pancreas, adherent)",0.958,> 10,0.912,> 20,0.931,> 20,0.977,> 0.128,0.55,0.0892,0.814,3.82
"PC-3 [JPC-3] (lung adenocarcinoma, adherent)",0.914,> 10,0.859,> 20,0.932,> 20,0.977,> 0.128,0.91,> 1,0.672,1.14
"PC-14 (lung adenocarcinoma, adherent)",0.963,> 10,0.879,16.7,0.982,> 20,0.989,> 0.128,0.63,0.136,0.616,0.641
"PCI-4B (head and neck, adherent)",0.95,> 10,0.882,19.2,0.846,13.5,0.981,> 0.128,0.3,0.0178,0.672,0.937
"PCI-6A (head and neck, adherent)",0.945,> 10,0.777,7.86,0.767,7.27,0.982,> 0.128,0.868,0.884,0.652,0.834
"PCI-15A (head and neck, adherent)",0.866,9.1,0.973,> 20,0.985,> 20,0.987,> 0.128,0.459,0.0482,0.758,1.79
"PCI-30 (head and neck, adherent)",0.976,> 10,0.938,> 20,0.981,> 20,0.982,> 0.128,0.849,> 1,0.857,> 5.12
"PCI-38 (head and neck, adherent)",0.917,> 10,0.896,> 20,0.946,> 20,0.985,> 0.128,0.456,0.0473,0.785,2.2
"PE/CA-PJ15 (head and neck, adherent)",0.959,> 10,0.938,> 20,0.986,> 20,0.985,> 0.128,0.287,0.0148,0.927,> 5.12
"PL4 (pancreas, adherent)",0.968,> 10,0.955,> 20,0.987,> 20,0.983,> 0.128,0.194,0.0074,0.975,> 5.12
